Data reported in PubChem BioAssay AID1508642 (National Center for Advancing Translational Sciences (NCATS), 2021).
Screen size: about 43,000 compounds; about 200 (0.47%) were called active. Inconclusive results (about 12%) are left out. Calls follow the shape of the dose curve; as a rule, active = well fitted cell-killing curve with a large enough effect; inconclusive = small, poorly fitted or top-dose-only effect, or effect the other way; inactive = flat fitted curve, though single readings scatter. This is one part of the list.

assay: Cell viability qHTS assay in S16 Pmp22-F2sN cells; conditions: S16 Pmp22-F2sN Schwann cells (luciferase reporters placed in the Pmp22 gene) viability, CellTiter-Glo, 24 h; series mostly up to 57.5 µM; activity change, negative = cytotoxicity: at the top concentration; also: nearly all actives have a fitted effect of over 65% in size
Method in brief: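 CellTiter-Glo counter-screen, qHTS, 1536-well. Cells: S16(c9) Pmp22-F2sN, 500-1,000/well in DMEM + 10% FBS. Cpd 23 nL pin transfer, 24 h, 37C/5% CO2. Read: luminescence, CCD imager.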
% is scaled to controls: 0 for no effect and ±100 for the full control effect.

SMILES	activity change, negative = cytotoxicity
CCOC(=O)c1cc(-c2ccc(OC)cc2)n(CCC(=O)NCCc2ccccc2)c1C	inactive: -3.25%
Cc1ccccc1N(C)S(=O)(=O)c1nnc(NC(=O)c2ccco2)s1	inactive: -0.492%
COc1cccc(C(=O)NCCc2csc3nc(-c4ccccc4F)nn23)c1OC	inactive: 1.46%
Cc1ccc(NC(=O)C2(C)Cc3ccccc3C(=O)O2)c(C)c1 (centres undefined)	inactive: 0.276%
CCn1nc(C)c(CCN(C)C(=O)Nc2cccc(Cl)c2C)c1C	inactive: 8.63%
Cc1cccc(C(=O)N2CCc3cc(CNC(=O)c4cc5ccccc5[nH]4)ccc32)c1	inactive: -4.21%
Cc1ccc(CNC(=O)C(C)n2c(=O)cc(C(F)(F)F)c3c(C)nn(C)c32)cc1 (centres undefined)	inactive: -20.3%
Cc1ccc(S(=O)(=O)C(CNC(=O)c2c(F)cccc2F)c2ccco2)cc1 (centres undefined)	inactive: 3.42%
Cc1cc(C)c(S(=O)(=O)NCCS(=O)(=O)N2CCN(c3ccccc3)CC2)c(C)c1	inactive: -0.684%
O=S(=O)(c1ccccc1)c1nc(-c2ccccc2Cl)oc1N1CCCCCC1	inactive: 7.55%
Cc1nc2ccccn2c(=O)c1NC(=O)c1cccc(F)c1	inactive: 1%
COc1cccc(Nc2nc3cc(C)ccc3nc2NS(=O)(=O)c2ccc(Cl)cc2)c1	inactive: -12.3%
COC(=O)c1ccccc1NC(=O)Cn1cnc2sc(C)c(S(=O)(=O)N3CCC(C)CC3)c2c1=O	inactive: -7.99%
CCOC(=O)c1cccc(NC(=O)c2ncoc2-c2ccco2)c1	inactive: 6.29%
Cc1cccc(-n2ccnc2SCC(=O)Nc2cccc3ccccc23)c1	inactive: -3.09%
N#Cc1c[nH]n2c(NC3CCCCC3)c(-c3ccc(F)cc3)nc12	inactive: -18.4%
Oc1ccccc1-c1nc(-c2cccs2)c(-c2cccs2)[nH]1	inactive: -5.18%
O=C(COc1ccccc1Cl)Nc1ccc(OCc2cc(=O)n3ccsc3n2)cc1	inactive: 4.06%
Cc1cc(C)cc(OCCSc2nc3ccc(NC(=O)c4ccc5c(c4)OCO5)cc3s2)c1	inactive: 13.7%
CCc1ccc2[nH]cc(S(=O)(=O)c3ccc(C(C)C)cc3)c(=O)c2c1	inactive: 0.425%
CCOC(=O)c1c(NC(=O)c2cc(-c3ccccc3OC)on2)sc(C)c1C	inactive: 0.197%
COc1ccc(NC(=O)CCc2c(C)nc3c(c2C)c(=O)n(C)c(=O)n3C)c(OC)c1	inactive: 11.7%
CCc1ccccc1NC(=O)Cn1nc2c3cc(F)ccc3n(Cc3cccc(C)c3)cc-2c1=O	inactive: 8.75%
O=C(COc1ccccc1F)Nc1ccc2nc(SCC(=O)N3CCc4ccccc43)sc2c1	inactive: 1.74%
COc1ccccc1CNC(=O)C1(c2cccs2)CCOCC1	inactive: 28.3%

SMILES	activity change, negative = cytotoxicity
COc1ccc(-c2nc3nc(C)cc(C)n3c2Nc2c(C)cccc2C)cc1	inactive: 0.904%
Cc1cc(NC(=O)C2CCN(S(=O)(=O)c3c(C)noc3C)CC2)ccc1Br	inactive: -0.617%
Cc1cc(C)c2nc(N(Cc3cccnc3)C(=O)CCS(=O)(=O)c3ccccc3)sc2c1	inactive: -1.36%
CC1=C(C(=O)Nc2cccnc2)C(c2ccc(F)cc2)n2nc(-c3cccc(C)c3)nc2N1 (centres undefined)	inactive: -0.147%
CCN(C(=O)Cn1c(C(=O)OC)cc2sc(Cl)cc21)c1cccc(C)c1	inactive: 2.48%
COc1ccc([N+](=O)[O-])cc1NC(c1nnc(-c2ccccc2)o1)c1ccccc1F (centres undefined)	inactive: 1.5%
CNC(=O)C1CCC(Cn2c(=O)c3sccc3n(Cc3cc(C)ccc3C)c2=O)CC1 (centres undefined)	inactive: 3.65%
COc1ccc(N2C(=O)NC(NS(=O)(=O)c3ccc(Cl)cc3)(C(F)(F)F)C2=O)cc1 (centres undefined)	inactive: 8.15%
COc1ccc(C2C(=O)N(C3CCCCC3)CC(=O)N2CCc2ccc(C)cc2)cc1OC (centres undefined)	inactive: 0.883%
COCCNC(=O)CCCn1c(SCC(=O)Nc2ccc(F)cc2)nc2c(sc3ccccc32)c1=O	inactive: -17.4%
COc1ccc(C(=O)n2nc(N)c3cc4ccc(C)cc4nc32)cc1OC	inactive: 1.27%
CCOC(=O)Cn1c(=N)n(Cc2ccc(C(C)(C)C)cc2)c2ccccc21	inactive: 1.06%
COC(=O)c1cc2oc(C)cc2n1Cc1ccccc1Cl	inactive: -17.4%
Cc1cc2nc(-c3ccc(OCc4ccccc4C)cc3)cc(C(F)(F)F)n2n1	inactive: -1.76%
Cc1cc(C)cc(-n2ccnc2SCC(=O)Nc2cccc3ccccc23)c1	inactive: -14.4%
COc1ccccc1C1NC(=O)c2n[nH]c(-c3cccs3)c21 (centres undefined)	inactive: -5.98%
CC1CCN(C(=O)c2c(NC(=O)c3ccccc3Cl)sc3c2CCC(C(C)(C)C)C3)CC1 (centres undefined)	inactive: -1.94%
Cc1ccccc1NC(=O)Cn1c(=O)n(CCCC(=O)NCc2ccc3c(c2)OCO3)c(=O)c2ccccc21	inactive: 1.86%
CCOc1ccc(CC(=O)Nc2cccc(-c3nc4cccnc4s3)c2C)cc1	inactive: 0.875%
COc1ccc2[nH]cc(CCN=C(NC(=O)c3ccccc3F)Nc3nc(C)cc(C)n3)c2c1	inactive: 25.7%
O=c1cc(-c2ccccc2)c2ccc3c(c2o1)CN(Cc1cccc(Cl)c1)CO3	inactive: 1.26%
COc1cccc(NCc2cccn2-c2nnc(N3CCC(C)CC3)s2)c1	inactive: -11.1%
CCC(C)NC(=O)CN1C(=O)c2cccnc2Sc2ccccc21 (centres undefined)	inactive: 2.8%
COc1ccc(Cl)cc1NC(=O)c1c(NCc2ccc(C)o2)sc2c1CCC(C)C2 (centres undefined)	inactive: -15.1%
